# Source: PubChem BioAssay AID504832 (National Center for Advancing Translational Sciences (NCATS), 2011)
# Screen size: about 310,000 compounds; about 18,000 (5.8%) were called active. This list was built around the results that the source calls inconclusive (neither active nor inactive); the mix of calls is not that of the screen. Calls follow the shape of the dose curve; as a rule, active = well fitted inhibition curve with a large enough effect; inconclusive = small, poorly fitted or top-dose-only effect, or another doubt; inactive = no such curve, though single readings can be large or run the other way. No potency is given beside an inconclusive call; the fits are too rough.
# Assay: Primary qHTS for delayed death inhibitors of the malarial parasite plastid, 48 hour incubation
# Settings: P. falciparum luciferase growth in erythrocytes; series mostly up to 28.7 µM; activity change, negative = inhibition: at the top concentration
# Summary of the method: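 First compound was added to culture medium, then infected red cells at 0.1% parasitemia and 2% hematocrit (final). After incubation at 37 C under 5% CO2, luciferase detection reagent was dispensed and light output recorded.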
# % is scaled to controls: 0 for no effect and ±100 for the full control effect; potency is read from the fitted curve at half-maximal effect; tags tell the direction and shape of the fitted curve.
Structure (SMILES),"activity change, negative = inhibition",Potency
CC(=O)NC1C(=O)N(CCN2CCOCC2)c2ccc(C)cc21 (centres undefined),inactive: 2.96%,
CCOC(=O)c1cc2c(ccn2C)n1CC(=O)N1CCN(c2ccccc2)CC1,,"inconclusive [inhibitor, single point]"
CCN1CCc2c(sc(NC(=S)NC(=O)c3ccccc3)c2C#N)C1,,"inconclusive [inhibitor, single point]"
Cc1nn(Cc2ccc(C(=O)Nc3nc4c(C)cccc4s3)o2)c(C)c1Br,inactive: -4.67%,
CCC1CCc2c(sc3nc(SCC(=O)NCc4ccco4)n(-c4ccccc4)c(=O)c23)C1 (centres undefined),,active: 11.7 µM
COCCn1ccc(O)c(Cc2ccc(Cl)cc2)c1=O,,"inconclusive [inhibitor, single point]"
COc1cccc([C@@H]2CC=C(C(=O)O)[C@H](c3cccc(Cl)c3)N2S(=O)(=O)c2ccc(C)cc2)c1,,"inconclusive [inhibitor, partial curve, poor fit]"
O=C(Nc1cccc(NC(=O)N2CCN(c3ccccc3)CC2)c1)N1CCN(c2ccccc2)CC1,,"inconclusive [inhibitor, partial curve, poor fit]"
Oc1ccc(Br)cc1CN1CCN(c2ccccc2)CC1,,active: 1.65 µM
COc1ccc(Cc2nnc(NC(=O)Nc3ccccc3OC)s2)cc1,,"inconclusive [inhibitor, single point]"
O=C(/C=C/c1cccc(Cl)c1)c1ccc([N+](=O)[O-])o1,,"inconclusive [inhibitor, single point]"
COc1ccc(/C=N/NC(=O)CCn2cnc(-c3ccccc3)c2-c2ccccc2)cc1,,"inconclusive [inhibitor, single point]"
CC1(C)CC(NC(=O)COc2ccc3ccc(=O)oc3c2)CC(C)(C)N1,inactive: 16.7%,
Cc1nnc(NC(=O)CSc2nnc(-c3ccoc3C)n2CC(C)C)s1,,"inconclusive [inhibitor, partial curve, poor fit]"
Cn1c(COc2ccc(F)cc2)nc2ccccc21,inactive: 111%,
CC(=O)Nc1ccccc1C(=O)C(=O)Nc1cccc(C(=O)N2CC(C)CC(C)C2)c1 (centres undefined),inactive: 1.87%,
CC1CCCN(S(=O)(=O)c2cc3c4c(c2)C(C)C(=O)N4CCC3)C1 (centres undefined),inactive: -27.7%,
CC(=O)c1ccc(N(C(=O)Cc2c[nH]c3ccccc23)C(C(=O)NC2CCCCC2)c2cccs2)cc1 (centres undefined),,active: 3.7 µM
Cc1ccc(C(C)(C)C)c(OCCCCN2CCCC2)c1,,"inconclusive [inhibitor, single point]"
COc1ccc(-c2cnnn2-c2ccc(NC(=O)c3ccco3)cc2)cc1OC,,"inconclusive [inhibitor, single point]"
CCOC(=O)C1=C(c2ccccc2)NC(N)=NC1c1ccc(OCc2ccc(C(=O)OC)cc2)cc1 (centres undefined),,active: 4.65 µM
O=C(NC(c1ccccc1)c1ccccc1)c1ccc(CO)cc1,,"inconclusive [inhibitor, single point]"

Structure (SMILES),"activity change, negative = inhibition",Potency
COc1ccc(-n2cc(CNC3CCN(C)CC3)c(-c3cccc(F)c3)n2)cc1,,active: 1.47 µM
COc1cccc(/C=C2/Sc3ccc(C(=O)NCCCN4CCCC4)cc3NC2=O)c1,,"inconclusive [inhibitor, single point]"
O=C(Nc1ccccc1)/C(=C/c1ccccc1)c1ccccc1,,active: 14.7 µM
Cc1ccccc1OCC(=O)Nc1ccccc1N1CCC(C)CC1,,"inconclusive [inhibitor, partial curve, poor fit]"
Cc1cc(N2CCCCC2)nc2c(C)cccc12,inactive: 15.3%,
CC(C)=NOC(=O)c1c(C)noc1-c1snnc1C,,active: 1.65 µM
COc1cccc(NC(=S)NC2CC3CCCC(C2)N3C2CCCC2)c1 (centres undefined),,"inconclusive [inhibitor, single point]"
O=C(Nc1nc(-c2cccs2)cs1)c1cccc(S(=O)(=O)N2CCCCC2)c1,,"inconclusive [inhibitor, single point]"
COc1ccc(C2CC(c3cccs3)=NN2c2nc(-c3ccccc3)cs2)cc1OC (centres undefined),,"inconclusive [inhibitor, partial curve]"
O=C(O)c1ccc2c(c1)C(=O)N([C@H](Cc1c[nH]c3ccccc13)C(=O)O)C2=O,,"inconclusive [inhibitor, single point]"
CC(C)C(NC(=O)C1CCC(C(C)(C)C)CC1)C(=O)NCc1cccnc1 (centres undefined),,"inconclusive [inhibitor, partial curve, poor fit]"
O=C(c1ccc(COc2ccc(Cl)cc2)o1)N1N=C(C(F)F)CC1(O)C(F)F (centres undefined),inactive: 1.33%,
CC(NC1CCN(Cc2ccccc2)CC1)c1ccc(F)cc1 (centres undefined),,"inconclusive [inhibitor, full curve, poor fit]"
CC1(C)Cc2nc3oc4c(=O)n(CC(=O)Nc5ccc(Cl)cc5)cnc4c3cc2CO1,,"inconclusive [inhibitor, partial curve]"
COc1cc(CCC(=O)Nc2ccc(Cl)c(C(F)(F)F)c2)cc(OC)c1OC,,"inconclusive [inhibitor, single point]"
CCc1sc(C(=O)Nc2cc(S(=O)(=O)N3CCOCC3)ccc2OC)cc1C,,"inconclusive [inhibitor, single point]"
N#Cc1ccc(N2Cc3ccccc3C2=NC(=O)c2cccs2)cc1,inactive: 62.1%,
CCOc1ccc(-n2c(-c3ccc(Cl)cc3)c[n+]3c2SCC3)cc1,,active: 13.1 µM
CCOc1ccc(C(=O)/C=C/c2cc(OC)c(OC)c(OC)c2)cc1,,"inconclusive [inhibitor, single point]"
O=C(NCc1ccccn1)C(=O)Nc1cc2c3c(c1)CC(=O)N3CCC2,,"inconclusive [inhibitor, single point]"
CCOc1ccccc1NC(=O)CN1C(=O)NC(Cc2c[nH]c3ccccc23)C1=O (centres undefined),,"inconclusive [inhibitor, partial curve, poor fit]"
O=C1[C@H]2[C@@H](C3CC3)N3C(=O)CN(Cc4ccccn4)C(=O)[C@@]3(Cc3ccccc3)[C@H]2C(=O)N1c1ccccc1,,"inconclusive [inhibitor, partial curve, poor fit]"
